This note sets out measurements from publication PMC8550979 (Leukemia, 2021).

B1: RUNX1 variant Arg118Gly, YFP fusion protein (natural protein)
chain: not shown
B2: RUNX1 variant Gly60Cys, YFP fusion protein (natural protein)
chain: not shown
B3: RUNX1 variant Leu117Gln, YFP fusion protein (natural protein)
chain: not shown
B4: RUNX1 variant Arg205Gln, YFP fusion protein (natural protein)
chain: not shown
B5: RUNX1 variant Arg174Gln (pathogenic missense control), YFP fusion protein (natural protein)
chain: not shown
B6: RUNX1 variant Lys83Glu (pathogenic missense control), YFP fusion protein (natural protein)
chain: not shown
B7: RUNX1 variant Leu29Ser, YFP fusion protein (natural protein)
chain: not shown
B8: RUNX1 variant Arg139Gln (pathogenic missense control), YFP fusion protein (natural protein)
chain: not shown
B9: RUNX1 variant Arg180Trp, YFP fusion protein (natural protein)
chain: not shown

For this assay, the target named is CBFB CFP fusion protein (human, UniProt Q13951 1-182). Briefly: FRET or BRET; flow-cytometry-based FRET; RUNX1.YFP (wild type or variant) cotransfected with CBFB.CFP in HEK293T cells; gate set with RUNX1.YFP plus CFP alone; FRET+ cells relative to wild-type RUNX1; three biological replicates. The following applies: partners not purified.
Chain of UniProt Q13951 (Q13951 whole entry, the tested form may be a part): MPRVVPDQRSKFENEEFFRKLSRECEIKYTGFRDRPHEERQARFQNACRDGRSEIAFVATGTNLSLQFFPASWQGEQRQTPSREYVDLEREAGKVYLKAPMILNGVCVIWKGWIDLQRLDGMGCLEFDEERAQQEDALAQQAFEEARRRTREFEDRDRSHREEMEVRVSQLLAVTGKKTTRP
As to B1, the “heterodimerization relative to wild type” value is ≥ 85 % of wild-type activity.
With B2 the figure was ≥ 85 % of wild-type activity; with B3, ≥ 85 % of wild-type activity.
With B4 the figure was ≥ 85 % of wild-type activity; with B5, ≥ 85 % of wild-type activity; with B6, ≥ 85 % of wild-type activity.
With B7 the figure was ≥ 85 % of wild-type activity; with B8, ≥ 85 % of wild-type activity.
Regarding B9, the “heterodimerization relative to wild type” value was ≥ 85 % of wild-type activity.
